# Reference: the supplement of paper PMC8728848
# Some of the results follow.
# B1: Cp ZmpB (Clostridium perfringens), Q0TR08 (protein)
# chain: MNKRKIAAIILATMITNLSATTIDVLAQELNTKNNSKVEVSHDDESHQARVSKFDLYNSDKLDAYNQEFQVSRSNIKSINNNGGKYNSSTIDKAIDGNLETHWETGKPNDANFTNEVVVTFNEITNIDRIVYSARRDSARGKGFAKEFEIYASLKDEGDDFNLVSSGEYTESTRDLVEIKFNPTDFKRLKFKFKKADQNWASAAEFMFYKEDKLNEKFNGLFTDSSMNKVSEEFNTLEKLNAFENELKDHPIYDLYKEGLNNARAILTETSENPTKATLGQITYNLNDDYNNQYRMPYKNIKAIKNNGRHYAAQNIEKAIDNDVNTYWETGTLNSSSFNNEVEVEFNDLVTLDRIVYGSRQSDLKGFAEEVYIYASRTSKGDTYKLVATGAHEATKGLVEAKFEPTEFKRVKFKFKKSKQNSATLNELMFYKPDEVYSSIPKLFTDGTMSELSEEFNSLEKINAFKEKAKNHPLYNDFNETIELAESLISNPRKEDVLELEMRGDSISEAKKRKVWNFQDWQITGLSARAGDKITVYVDVAEGDPTPTLLYKQSLTQHGGATSFQLKPGKNEITIPEINYESNGIPKDVIQGGDLFFTNYKSDSQKRAPKVRIEGASKYPVFILGKSDENEVMKELEAYVEKIKAEPKTTPNIFAVSSNKSLEFVQATYALDWYKKNNKTPKYTAEQWDQYIADAMGFWGFDNSKDVNSDFNFRIMPMVKNLSGGAFMNAGNGVIGIRPGNQDAILAANKGWGVAHELGHNFDTGGRTIVEVTNNMMPLFFESKYKTKTRITDQNIWENNTYPKVGLDDYSNNELYNKADSTHLAQLAPLWQLYLYDNTFYGKFERQFRERDFGNKNREDIYKSWVVAASDAMELDLTEFFARHGIRVDDKVKEDLAKYPKPDKKIYYLNDLAMNYKGDGFTENAKVSVSTSGSNGNIKLSFSVDDENKDNILGYEIRRDGKYVGFTSNDSFVDTKSNLDEDGVYVVTPYDRKLNTLNPIEVNALQPTLSVNPVITLALGEEFNEEEYIVAKDIKGNSLSESVKVKSSNVNTSKVGEYEVLYSLEDSKGNEYTKTSKVNVVSRKEYMSDLTPKQSSNGWGTVRKDKSISGGVIGLTRDGDFVDYNKGLGLHSNAEYVYDLEGKDYDYFESYVGVDKAMSSRPASSVIFKVLVDGEEKFNSGVMRSTTPQKYVKVDVKNAKELKLIVNDAGDGDSSDHASFGDAKLATLSSKPIIKGENLAYSMDEKVDLMKGITATDIEDGNITSKVQIKSSDFVEGKSGIFTVVYSVTDSDGLTSECSRTIAVTDKETQLSDLNWKSATIGSGSVRKDRAVSGNQIRLLNEDNSVETFAKGIGTHSYSEIVYNSEGYDIFDTWVGIDRHVADKKVSSVKFKVYVDGELKAETDVMRIDTPKKRLVVDVRNSKEIKLVVDVADNGNNWDHADWADAKFRNLAEYDASELNKAIEEAKKLDLNNYTEESSEALKNAISKGEEALLSKDKETINSALEELNKEMNSLVKVDLNAVINIPDKYLLKSIQNQLNKTGDITLGDMYSLTTLTLSGVEDLTGLENAKNLETLNMDYNEVKDLRPLSKLKKLNTLNAQEQFIAAGELKPSNGKVIGDSKVYNREGKNVAKTIRVVDKNGNTILEQDAKDEFTINTKDLSSGLYGVHVLFEDEGFSGVMFYLFNV
# Tests used:
# Test in all cases: glycan array binding signal (z-score within array); higher = stronger binding
# Conditions in all cases: glycan notation: IUPAC condensed, linker removed
# Fuc(a1-2)Gal = molecular target: Fuc(a1-2)Gal
# Outline: (§1)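 The Consortium for Functional Glycomics database supplied 3228 glycan arrays, of which those lacking an available protein sequence were dropped. The binding signal, a within-array Z-score, was averaged across arrays of the same protein sequence and across linkers. Negative scores can be read as non-binding.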
# Fuc(a1-2)Gal(b1-3)GalNAc = molecular target: Fuc(a1-2)Gal(b1-3)GalNAc
# Outline: as §1
# [1] = molecular target: Fuc(a1-2)Gal(b1-3)GalNAc(a1-3)[Fuc(a1-2)]Gal(b1-4)Glc
# Outline: as §1
# [2] = molecular target: Fuc(a1-2)Gal(b1-3)GalNAc(a1-3)[Fuc(a1-2)]Gal(b1-4)GlcNAc
# Outline: as §1
# [3] = molecular target: Fuc(a1-2)Gal(b1-3)GalNAc(b1-3)Gal
# Outline: as §1
# [4] = molecular target: Fuc(a1-2)Gal(b1-3)GalNAc(b1-3)Gal(a1-4)Gal(b1-4)Glc
# Outline: as §1
# [5] = molecular target: Fuc(a1-2)Gal(b1-3)GalNAc(b1-4)[Neu5Ac(a2-3)]Gal(b1-4)Glc
# Outline: as §1
# Fuc(a1-2)Gal(b1-3)GlcNAc = molecular target: Fuc(a1-2)Gal(b1-3)GlcNAc
# Outline: as §1
# [6] = molecular target: Fuc(a1-2)Gal(b1-3)GlcNAc(b1-2)Man(a1-3)[Fuc(a1-2)Gal(b1-3)GlcNAc(b1-2)Man(a1-6)]Man(b1-4)GlcNAc(b1-4)GlcNAc
# Outline: as §1
# [7] = molecular target: Fuc(a1-2)Gal(b1-3)GlcNAc(b1-2)Man(a1-3)[Fuc(a1-2)Gal(b1-3)GlcNAc(b1-2)Man(a1-6)]Man(b1-4)GlcNAc(b1-4)[Fuc(a1-6)]GlcNAc
# Outline: as §1
# [8] = molecular target: Fuc(a1-2)Gal(b1-3)GlcNAc(b1-3)Gal(b1-4)Glc
# Outline: as §1
# [9] = molecular target: Fuc(a1-2)Gal(b1-3)GlcNAc(b1-3)GalNAc
# Outline: as §1
# [10] = molecular target: Fuc(a1-2)Gal(b1-3)GlcNAc(b1-3)[Fuc(a1-2)Gal(b1-3)GlcNAc(b1-6)]GalNAc
# Outline: as §1
# [11] = molecular target: Fuc(a1-2)Gal(b1-3)GlcNAc(b1-3)[Gal(b1-4)GlcNAc(b1-6)]Gal(b1-4)Glc
# Outline: as §1
# [12] = molecular target: Fuc(a1-2)Gal(b1-3)GlcNAc(b1-3)[Neu5Ac(a2-6)Gal(b1-4)GlcNAc(b1-6)]Gal(b1-4)Glc
# Outline: as §1
# [13] = molecular target: Fuc(a1-2)Gal(b1-3)GlcNAc6S
# Outline: as §1
# [14] = molecular target: Fuc(a1-2)Gal(b1-3)[Fuc(a1-4)]GlcNAc
# Outline: as §1
# [15] = molecular target: Fuc(a1-2)Gal(b1-3)[Fuc(a1-4)]GlcNAc(b1-2)Man(a1-3)[Fuc(a1-2)Gal(b1-3)[Fuc(a1-4)]GlcNAc(b1-2)Man(a1-3)]Man(b1-4)GlcNAc(b1-4)GlcNAc
# Outline: as §1
# [16] = molecular target: Fuc(a1-2)Gal(b1-3)[Fuc(a1-4)]GlcNAc(b1-2)Man(a1-3)[Fuc(a1-2)Gal(b1-3)[Fuc(a1-4)]GlcNAc(b1-2)Man(a1-6)]Man(b1-4)GlcNAc(b1-4)[Fuc(a1-6)]GlcNAc(b1-4)[Fuc(a1-6)]GlcNAc
# Outline: as §1
# [17] = molecular target: Fuc(a1-2)Gal(b1-3)[Fuc(a1-4)]GlcNAc(b1-3)[Fuc(a1-3)[Gal(b1-4)]GlcNAc(b1-6)]Gal(b1-4)Glc
# Outline: as §1
# [18] = molecular target: Fuc(a1-2)Gal(b1-3)[Fuc(a1-4)]GlcNAc(b1-3)[Gal(b1-4)GlcNAc(b1-6)]Gal(b1-4)Glc
# Outline: as §1
# [19] = molecular target: Fuc(a1-2)Gal(b1-4)Fuc(a1-3)]GlcNAc(b1-2)Man(a1-3)[Fuc(a1-2)Gal(b1-4)[Fuc(a1-3)]GlcNAc(b1-2)Man(a1-6)]Man(b1-4)GlcNAc(b1-4)GlcNAc
# Outline: as §1
# Fuc(a1-2)Gal(b1-4)Glc = molecular target: Fuc(a1-2)Gal(b1-4)Glc
# Outline: as §1
# Fuc(a1-2)Gal(b1-4)Glc6S = molecular target: Fuc(a1-2)Gal(b1-4)Glc6S
# Outline: as §1
# Fuc(a1-2)Gal(b1-4)GlcNAc = molecular target: Fuc(a1-2)Gal(b1-4)GlcNAc
# Outline: as §1
# [20] = molecular target: Fuc(a1-2)Gal(b1-4)GlcNAc(b1-2)Man
# Outline: as §1
# [21] = molecular target: Fuc(a1-2)Gal(b1-4)GlcNAc(b1-2)Man(a1-3)[Fuc(a1-2)Gal(b1-4)GlcNAc(b1-2)Man(a1-6)]Man(b1-4)GlcNAc(b1-4)GlcNAc
# Outline: as §1
# [22] = molecular target: Fuc(a1-2)Gal(b1-4)GlcNAc(b1-2)Man(a1-3)[Fuc(a1-2)Gal(b1-4)GlcNAc(b1-2)Man(a1-6)]Man(b1-4)GlcNAc(b1-4)[Fuc(a1-6)]GlcNAc
# Outline: as §1
# [23] = molecular target: Fuc(a1-2)Gal(b1-4)GlcNAc(b1-2)[Fuc(a1-2)Gal(b1-4)GlcNAc(b1-4)]Man(a1-3)[Fuc(a1-2)Gal(b1-4)GlcNAc(b1-2)Man(a1-6)]Man(b1-4)GlcNAc(b1-4)GlcNAc
# Outline: as §1
# [24] = molecular target: Fuc(a1-2)Gal(b1-4)GlcNAc(b1-3)Gal(b1-4)GlcNAc
# Outline: as §1
binder,measurement,setting,value
B1,glycan array binding signal (z-score),Fuc(a1-2)Gal,22.4
same,glycan array binding signal (z-score),Fuc(a1-2)Gal(b1-3)GalNAc,-0.22
same,glycan array binding signal (z-score),[1],-0.186
same,glycan array binding signal (z-score),[2],0.094
same,glycan array binding signal (z-score),[3],-0.497
same,glycan array binding signal (z-score),[4],-0.059
same,glycan array binding signal (z-score),[5],-0.152
same,glycan array binding signal (z-score),Fuc(a1-2)Gal(b1-3)GlcNAc,-0.148
same,glycan array binding signal (z-score),[6],-0.223
same,glycan array binding signal (z-score),[7],-0.378
same,glycan array binding signal (z-score),[8],-0.145
same,glycan array binding signal (z-score),[9],0.441
same,glycan array binding signal (z-score),[10],-0.269
same,glycan array binding signal (z-score),[11],0.057
same,glycan array binding signal (z-score),[12],-0.4
same,glycan array binding signal (z-score),[13],0.098
same,glycan array binding signal (z-score),[14],0.061
same,glycan array binding signal (z-score),[15],0.36
same,glycan array binding signal (z-score),[16],-0.353
same,glycan array binding signal (z-score),[17],-0.133
same,glycan array binding signal (z-score),[18],-0.068
same,glycan array binding signal (z-score),[19],-0.079
same,glycan array binding signal (z-score),Fuc(a1-2)Gal(b1-4)Glc,-0.329
same,glycan array binding signal (z-score),Fuc(a1-2)Gal(b1-4)Glc6S,-0.219
same,glycan array binding signal (z-score),Fuc(a1-2)Gal(b1-4)GlcNAc,-0.137
same,glycan array binding signal (z-score),[20],0.069
same,glycan array binding signal (z-score),[21],-0.207
same,glycan array binding signal (z-score),[22],-0.252
same,glycan array binding signal (z-score),[23],-0.24
same,glycan array binding signal (z-score),[24],-0.293
